Data published in article PMC12691697.
Results are given in words; binding and its absence hold for the method and conditions named. Binding seen in cells or lysates may run through a third protein. Some entries that bind do so weakly or less than the wild type. For some of these results: Sequences can lack the tags named with a protein.

T1: FLAG-tagged GBP5 (guanylate-binding protein 5) (UniProt Q96PP8)
T1 sequence: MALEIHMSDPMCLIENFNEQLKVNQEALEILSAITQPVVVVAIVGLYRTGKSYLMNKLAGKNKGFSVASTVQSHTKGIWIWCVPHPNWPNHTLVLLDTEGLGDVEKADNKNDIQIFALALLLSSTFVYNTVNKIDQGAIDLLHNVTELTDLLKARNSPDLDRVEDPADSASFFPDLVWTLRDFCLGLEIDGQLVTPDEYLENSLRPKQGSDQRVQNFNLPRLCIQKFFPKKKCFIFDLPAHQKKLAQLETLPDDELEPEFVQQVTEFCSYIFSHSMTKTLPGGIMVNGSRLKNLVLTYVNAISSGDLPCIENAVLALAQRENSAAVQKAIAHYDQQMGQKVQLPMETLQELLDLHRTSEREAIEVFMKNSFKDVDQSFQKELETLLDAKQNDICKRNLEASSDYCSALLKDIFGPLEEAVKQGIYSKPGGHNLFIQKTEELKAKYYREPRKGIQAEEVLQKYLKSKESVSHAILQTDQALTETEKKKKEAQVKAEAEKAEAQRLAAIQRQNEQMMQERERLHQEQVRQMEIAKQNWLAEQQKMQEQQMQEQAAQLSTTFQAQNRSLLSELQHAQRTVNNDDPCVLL

T2: FLAG-GBP5 mutant M5 (E417A/K421A) (UniProt Q96PP8)
T2 sequence: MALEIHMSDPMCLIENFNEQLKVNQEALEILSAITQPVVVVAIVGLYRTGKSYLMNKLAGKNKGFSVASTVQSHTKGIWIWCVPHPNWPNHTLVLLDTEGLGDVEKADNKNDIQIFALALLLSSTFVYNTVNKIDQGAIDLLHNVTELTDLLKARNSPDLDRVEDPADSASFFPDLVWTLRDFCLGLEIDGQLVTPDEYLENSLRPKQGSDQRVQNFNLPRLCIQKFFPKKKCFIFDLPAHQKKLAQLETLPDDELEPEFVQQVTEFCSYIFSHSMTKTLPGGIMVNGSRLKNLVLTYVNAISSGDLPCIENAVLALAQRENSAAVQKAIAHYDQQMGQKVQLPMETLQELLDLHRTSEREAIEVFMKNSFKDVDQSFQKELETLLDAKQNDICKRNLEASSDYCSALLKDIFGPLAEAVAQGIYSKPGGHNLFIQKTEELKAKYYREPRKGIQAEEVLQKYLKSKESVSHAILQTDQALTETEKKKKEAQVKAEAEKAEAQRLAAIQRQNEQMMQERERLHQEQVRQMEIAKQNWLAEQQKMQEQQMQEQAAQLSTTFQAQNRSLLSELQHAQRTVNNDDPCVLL

T3: endogenous GBP5 (induced by IFN-γ) (human (endogenous in HEK 293T)) (UniProt Q96PP8)
T3 sequence: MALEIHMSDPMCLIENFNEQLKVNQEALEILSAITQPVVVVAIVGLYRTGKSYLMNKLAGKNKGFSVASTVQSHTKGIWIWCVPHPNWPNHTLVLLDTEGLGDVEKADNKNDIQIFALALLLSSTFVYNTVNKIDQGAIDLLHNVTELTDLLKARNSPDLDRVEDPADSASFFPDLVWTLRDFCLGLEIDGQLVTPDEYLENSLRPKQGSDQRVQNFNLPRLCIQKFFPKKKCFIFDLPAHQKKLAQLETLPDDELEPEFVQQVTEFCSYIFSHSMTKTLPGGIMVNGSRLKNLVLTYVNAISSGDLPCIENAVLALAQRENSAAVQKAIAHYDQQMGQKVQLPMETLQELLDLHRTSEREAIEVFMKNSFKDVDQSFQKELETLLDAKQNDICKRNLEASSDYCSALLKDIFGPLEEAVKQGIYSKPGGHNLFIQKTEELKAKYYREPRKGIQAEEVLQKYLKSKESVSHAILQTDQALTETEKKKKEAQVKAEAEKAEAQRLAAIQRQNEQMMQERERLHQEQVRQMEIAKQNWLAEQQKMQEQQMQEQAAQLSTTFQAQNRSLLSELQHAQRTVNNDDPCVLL

T4: FLAG-tagged GBP5-C583A (UniProt Q96PP8)
T4 sequence: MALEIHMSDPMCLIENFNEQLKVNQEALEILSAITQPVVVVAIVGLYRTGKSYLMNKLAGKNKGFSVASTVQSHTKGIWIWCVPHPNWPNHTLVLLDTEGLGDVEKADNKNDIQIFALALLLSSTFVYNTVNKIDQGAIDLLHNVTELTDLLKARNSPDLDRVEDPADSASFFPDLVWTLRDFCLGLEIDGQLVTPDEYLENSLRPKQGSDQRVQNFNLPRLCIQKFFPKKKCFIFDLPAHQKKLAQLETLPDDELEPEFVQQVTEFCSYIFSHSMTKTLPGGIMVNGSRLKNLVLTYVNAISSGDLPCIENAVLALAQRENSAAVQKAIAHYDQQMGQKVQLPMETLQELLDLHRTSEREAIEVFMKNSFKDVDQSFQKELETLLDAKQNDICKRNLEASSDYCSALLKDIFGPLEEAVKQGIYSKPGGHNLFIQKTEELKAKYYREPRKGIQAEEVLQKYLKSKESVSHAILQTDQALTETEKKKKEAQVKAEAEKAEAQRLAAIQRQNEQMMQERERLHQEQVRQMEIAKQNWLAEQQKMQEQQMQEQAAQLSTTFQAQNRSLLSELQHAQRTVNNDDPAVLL


Tests used:
[1] = molecular target: T1, FLAG-tagged GBP5 (guanylate-binding protein 5); assay: co-IP; HEK 293T cells co-transfected 48 h with FLAG-GBP5 constructs and MYC-tagged OST subunits; lysates immunoprecipitated with anti-FLAG on Dynabeads Protein G overnight at 4°C; washes include Pierce IP Lysis Buffer with 500 mM NaCl; anti-MYC blot
[2] = molecular target: T2, FLAG-GBP5 mutant M5 (E417A/K421A); assay: as above
[3] = molecular target: T3, endogenous GBP5 (induced by IFN-γ) (human (endogenous in HEK 293T)); assay: co-IP; HEK 293T cells treated with IFN-γ to induce GBP5; endogenous GBP5 immunoprecipitated with an anti-GBP5 antibody; blots for RPN1, RPN2, DDOST
FLAG-tagged GBP5-C583A = molecular target: T4, FLAG-tagged GBP5-C583A; assay: co-IP; HEK 293T cells transfected 48 h with FLAG-GBP5 or FLAG-GBP5-C583A; anti-FLAG immunoprecipitation; washes include 500 mM NaCl; blots for endogenous RPN2, RPN1, DDOST
[4] = molecular target: T1, FLAG-tagged GBP5 (guanylate-binding protein 5); assay: as above

| Binder | binding [1] | binding [2] | binding [3] | binding (FLAG-tagged GBP5-C583A) | binding [4] |
| --- | --- | --- | --- | --- | --- |
| MYC-tagged DDOST (protein, UniProt P39656 43-456) SGPRTLVLLDNLNVRETHSLFFRSLKDRGFELTFKTADDPSLSLIKYGEFLYDNLIIFSPSVEDFGGNINVETISAFIDGGGSVLVAASSDIGDPLRELGSECGIEFDEEKTAVIDHHNYDISDLGQHTLIVADTENLLKAPTIVGKSSLNPILFRGVGMVADPDNPLVLDILTGSSTSYSFFPDKPITQYPHAVGKNTLLIAGLQARNNARVIFSGSLDFFSDSFFNSAVQKAAPGSQRYSQTGNYELAVALSRWVFKEEGVLRVGPVSHHRVGETAPPNAYTVTDLVEYSIVIQQLSNGKWVPFDGDDIQLEFVRIDPFVRTFLKKKGGKYSVQFKLPDVYGVFQFKVDYNRLGYTHLYSSTQVSVRPLQHTQYERFIPSAYPYYASAFSMMLGLFIFSIVFLHMKEKEKSD | binds | no binding | – | – | – |
| MYC-tagged RPN1 (protein, UniProt P04843 24-607) ASSEAPPLINEDVKRTVDLSSHLAKVTAEVVLAHLGGGSTSRATSFLLALEPELEARLAHLGVQVKGEDEEENNLEVRETKIKGKSGRFFTVKLPVALDPGAKISVIVETVYTHVLHPYPTQITQSEKQFVVFEGNHYFYSPYPTKTQTMRVKLASRNVESYTKLGNPTRSEDLLDYGPFRDVPAYSQDTFKVHYENNSPFLTITSMTRVIEVSHWGNIAVEENVDLKHTGAVLKGPFSRYDYQRQPDSGISSIRSFKTILPAAAQDVYYRDEIGNVSTSHLLILDDSVEMEIRPRFPLFGGWKTHYIVGYNLPSYEYLYNLGDQYALKMRFVDHVFDEQVIDSLTVKIILPEGAKNIEIDSPYEISRAPDELHYTYLDTFGRPVIVAYKKNLVEQHIQDIVVHYTFNKVLMLQEPLLVVAAFYILFFTVIIYVRLDFSITKDPAAEARMKVACITEQVLTLVNKRIGLYRHFDETVNRYKQSRDISTLNSGKKSLETEHKALTSEIALLQSRLKTEGSDLCDRVSEMQKLDAQVKELVLKSAVEAERLVAGKLKKDTYIENEKLISGKRQELVTKIDHILDAL | binds | no binding | – | – | – |

The next lines start with the values.

| binding [1] | binding [2] | binding [3] | binding (FLAG-tagged GBP5-C583A) | binding [4] | Binder |
| --- | --- | --- | --- | --- | --- |
| – | – | binds | no binding | binds | endogenous DDOST (protein, UniProt P39656 43-456) SGPRTLVLLDNLNVRETHSLFFRSLKDRGFELTFKTADDPSLSLIKYGEFLYDNLIIFSPSVEDFGGNINVETISAFIDGGGSVLVAASSDIGDPLRELGSECGIEFDEEKTAVIDHHNYDISDLGQHTLIVADTENLLKAPTIVGKSSLNPILFRGVGMVADPDNPLVLDILTGSSTSYSFFPDKPITQYPHAVGKNTLLIAGLQARNNARVIFSGSLDFFSDSFFNSAVQKAAPGSQRYSQTGNYELAVALSRWVFKEEGVLRVGPVSHHRVGETAPPNAYTVTDLVEYSIVIQQLSNGKWVPFDGDDIQLEFVRIDPFVRTFLKKKGGKYSVQFKLPDVYGVFQFKVDYNRLGYTHLYSSTQVSVRPLQHTQYERFIPSAYPYYASAFSMMLGLFIFSIVFLHMKEKEKSD |
| – | – | binds | no binding | binds | endogenous RPN1 (protein, UniProt P04843 24-607) ASSEAPPLINEDVKRTVDLSSHLAKVTAEVVLAHLGGGSTSRATSFLLALEPELEARLAHLGVQVKGEDEEENNLEVRETKIKGKSGRFFTVKLPVALDPGAKISVIVETVYTHVLHPYPTQITQSEKQFVVFEGNHYFYSPYPTKTQTMRVKLASRNVESYTKLGNPTRSEDLLDYGPFRDVPAYSQDTFKVHYENNSPFLTITSMTRVIEVSHWGNIAVEENVDLKHTGAVLKGPFSRYDYQRQPDSGISSIRSFKTILPAAAQDVYYRDEIGNVSTSHLLILDDSVEMEIRPRFPLFGGWKTHYIVGYNLPSYEYLYNLGDQYALKMRFVDHVFDEQVIDSLTVKIILPEGAKNIEIDSPYEISRAPDELHYTYLDTFGRPVIVAYKKNLVEQHIQDIVVHYTFNKVLMLQEPLLVVAAFYILFFTVIIYVRLDFSITKDPAAEARMKVACITEQVLTLVNKRIGLYRHFDETVNRYKQSRDISTLNSGKKSLETEHKALTSEIALLQSRLKTEGSDLCDRVSEMQKLDAQVKELVLKSAVEAERLVAGKLKKDTYIENEKLISGKRQELVTKIDHILDAL |
